Test results from publication PMC12136788.
This is one part of the list.

B1: chr6:99998177:99998178:-_ENSG00000112237_ENST00000369220|hu_mus|FALSE|FALSE (ssRNA)
RNA: GGGAGUUCUACAGUCCGACGAUCAAGGGGAAGCAGCACGUCUUCCUGGCCCAUGUCCUGCACAUACUGGAGCAAAGGUCUAUAAGGAUGAUACACUAUCAAGCAACAGUCCAUUAAUUCUAAGAGGUAAAAUUCACAUUCUAGCAACAGAGGAUUGAGCAUCA
B2: chr7:138035701:138035702:+_ENSMUSG00000040268_ENSMUST00000120441|mus_hu|motif|central (ssRNA)
RNA: GGGAGUUCUACAGUCCGACGAUCUCCUGCAUUCAUAACAAAACAGAACUCCGCCUUUGGCCUUAGCUUAGUAGCAUCGCGGACCUUUGAAAUGUAGGUAAGCUUAAUGGCUCCAACACGUGAUGAUCCAGAAGGUAGGUUCUGCAACAGAGGAUUGAGCAUCA
B3: chr17:65740002:65740003:+_ENSG00000130935_ENST00000581375|hu_hu|hu_hu_hu_mus_False|28_58 (ssRNA)
RNA: GGGAGUUCUACAGUCCGACGAUCAACAAAUCUUUCUUCCCUGGACGAACAGGAAGAUUCAUAUUAAAAAAAAUAUAUGUCUAUGAAGUUAGGUGUGGUGGCCACACAGAGCUCCAGAGCACUUUGGGAGGUGGAUCUCUGAGUCAACAGAGGAUUGAGCAUCA
B4: chr5:69958400:69958401:+_ENSMUSG00000029208_ENSMUST00000154728|mus_mus|motif|central (ssRNA)
RNA: GGGAGUUCUACAGUCCGACGAUCGUCAUAAAAAUCUACCACAAUUUCAUUCAAAGGGAAGAGAUAUUUAAGCAUAACUCGGUUUUCAUCAAUAAAAGUCAUAUUUUUCUGAAUUGCUCUUCGUGCCUGACAAAGCGCCAUUAUCAACAGAGGAUUGAGCAUCA
B5: chr4:155069534:155069535:+_ENSMUSG00000074738_ENSMUST00000099265|mus_mus|FALSE|FALSE (ssRNA)
RNA: GGGAGUUCUACAGUCCGACGAUCAUGAUCCUGGGUGCCAGUGGUUUUUGCCAGAAGGGAAUGUAUAUUCUGGCCGGCUCUAUAAAGGCCUCUGGAGAUGGAGAAGACCCCUGGCUGCCAUUGACACUCUAGCCCAGGCCUAUGCAACAGAGGAUUGAGCAUCA
B6: chr5:145543945:145543946:-_ENSG00000133706_ENST00000545646|hu_hu|hu_hu_hu_mus_True|8_78 (ssRNA)
RNA: GGGAGUUCUACAGUCCGACGAUCCUGAACGGCCAGUGGUGGGAAAUAAUCAAGCCAAUGUUCUGCUUCAGAAAACUUCACUAUGUCGUCAUCAGAGAGCCCAAGGGAUUUCAUAAUGUCCCACUGGUAUUUAGAAGAUCCUGCCAACAGAGGAUUGAGCAUCA
B7: chr1:184247048:184247049:-_ENSMUSG00000047539_ENSMUST00000051431|mus_hu|FALSE|FALSE (ssRNA)
RNA: GGGAGUUCUACAGUCCGACGAUCCUGGAACUAGAACCACAUUCCAAUUUACUUUCUAUUCCGAAGACGUUUAGAUUUCCUAAGAGAGUCUAUGGCUUCCGUGGCCUUUUUUCGUUUCCGAGGAGACUCCUCAUUCUGCCCGGACAACAGAGGAUUGAGCAUCA
B8: 53546977_53561689_1691_CDS_ENSMUSG00000029189_ENSMUST00000031090|mouse|control|control (ssRNA)
RNA: GGGAGUUCUACAGUCCGACGAUCUACGGAGUCAUUUUGGUUCCAUGGCACGGUCAGCAGGUCCAUUUGCAGCAGGCUCUGGAACAAGCUGGGGUGCCUGUCUCUCAGUUCCUUCUCCCAGGGCAAGCCUCUGCACACCUCGGCCAACAGAGGAUUGAGCAUCA
B9: chr4:96106342:96106343:-_ENSG00000182168_ENST00000453304|hu_mus|FALSE|FALSE (ssRNA)
RNA: GGGAGUUCUACAGUCCGACGAUCAAGAGCCUUGGGUUCUUCUAGGAGCUGUCCUCCCAUUUGCCUCUCCAGUUGUAGAACUUCCUUCAGGGCAUCCUGUGUGUCAUCCAGGCAGUAGACUCUAAUGCUGUACUCCAGGGAAGACAACAGAGGAUUGAGCAUCA
B10: chr3:47164985:47164986:-_ENSG00000181555_ENST00000409792|hu_mus|motif|central (ssRNA)
RNA: GGGAGUUCUACAGUCCGACGAUCUCUUUCGGACCGACAUCGGGAAGAUACAUACCGAGUAUCUCGUUCAAGUUUUGAGUAGCGGCAAUAUCUAUCAUCUCUCUCUGUUUUCGAUCUUGAUGAUUUCCCCAAAUCCUCACUUUUCAACAGAGGAUUGAGCAUCA
B11: 44827152_44827272_573_5pUTR_ENSMUSG00000038518_ENSMUST00000173246|mouse|control|control (ssRNA)
RNA: GGGAGUUCUACAGUCCGACGAUCAUGAUAUUCCUCUUGGGUCUUUCCUUGCUCAUUCUGAGAUCCAAAUGCUGAUUGCAAAAGGGGACAAUUGCUUCAUGAAUUUAAAGCCGUCAGAAAUUUGCAAAAAAAUAUCCUGGUGGUCAACAGAGGAUUGAGCAUCA
B12: chr4:103533647:103533648:+_ENSG00000109320_ENST00000505458|hu_hu|motif|central (ssRNA)
RNA: GGGAGUUCUACAGUCCGACGAUCCCCCAGACCUAAUUUCUGCGCCAGAGUAGCCCAGUUUUUGUCUGGAUCAGGAAUUUCGGGUAACUUAUACAGCUGCAGCUUCACAUCUUCAGCCAGCUGUUUCAUGUCUCCUUGUGCUAGCAACAGAGGAUUGAGCAUCA
B13: 7361827_7365117_867_3pUTR_ENSMUSG00000024969_ENSMUST00000032557|mouse|control|control (ssRNA)
RNA: GGGAGUUCUACAGUCCGACGAUCGGAUGAUUCAAAACCUUCAUUAUUCUUACUUCUCGGAACAGUUUCUGUAGGCUGGAGGAGUUCAGCUGGGUCUUGUCGAUGAUCUUCACAGCUACCUCUUUCCCCGUCAGGAUGUGCCGGCAACAGAGGAUUGAGCAUCA
B14: chr4:41951345:41951346:+_ENSG00000109133_ENST00000513702|hu_hu|motif|central (ssRNA)
RNA: GGGAGUUCUACAGUCCGACGAUCAAAUAAGGUCCGACAAUAUGGGUUUCUUCGAGACGAAUAUCGAAGGGUAAGAAAUCGGUAGUAUAUAAAAGGUUGGAGCAAACUUCCUUGACCACUAAAAAGCAUAAAAACUGUCGCAGGCAACAGAGGAUUGAGCAUCA
B15: 114262960_114264180_1107_3pUTR_ENSG00000145362_ENST00000514960|human|control|control (ssRNA)
RNA: GGGAGUUCUACAGUCCGACGAUCUCUAACACCUCCACAUCCCUGCUUCUGGCCACCUCAGCAAAAUUUUCUUGUUGUUCAAGGGUCUUAUCCACUUUAUCAUCAGUCAUGCAGAAACACCUCAACCUGGCUUCAAUGGGGUCACAACAGAGGAUUGAGCAUCA
B16: chr7:139256351:139256352:-_ENSG00000064393_ENST00000406875|hu_mus|FALSE|FALSE (ssRNA)
RNA: GGGAGUUCUACAGUCCGACGAUCCUUGUGAGAUCCAUGAGUCUCCCCUUUUCAUUAUGCGAGCUUCUCUGAAAUCCUUCUGCUCACAAAGAGCCCAGGAAAGACAAUCCACGUGACAUUAAAACAAUGAAAAAAACAUAAAGACAACAGAGGAUUGAGCAUCA
B17: 70553451_70553571_107_3pUTR_ENSMUSG00000033712_ENSMUST00000035612|mouse|control|control (ssRNA)
RNA: GGGAGUUCUACAGUCCGACGAUCACACCAGGGGGACAAAGACACCCGGAACCACCGCAGCCGCCGCUGCCACCACCACCGGAAACGCCUCUCCGGAAGAGAGACCACUGGUCGGAAGCUGCCACUCUCCCGGAUAUGGUACCUCAACAGAGGAUUGAGCAUCA
B18: chr6:40197388:40197389:+_ENSMUSG00000057716_ENSMUST00000061740|mus_mus|mus_mus_mus_hu_False|18_98 (ssRNA)
RNA: GGGAGUUCUACAGUCCGACGAUCGAGACACUGGGGUGGAUGGCACCCACCUCUGUUUGGGUGCUAGCCACUAAGACUGUUAUUUUGGGAUUCAUGGCCUUGAAUAUCAAGAGGGAAGGGACGAGAAUGGAAAGAGUCAAGAGUCAACAGAGGAUUGAGCAUCA
B19: chr18:33688888:33688889:-_ENSG00000141424_ENST00000269187|hu_hu|FALSE|FALSE (ssRNA)
RNA: GGGAGUUCUACAGUCCGACGAUCUGCUUGAAUUCAUUAAAUAUAUUUAGAUUUCUGUAUUAUACAAAGUUAAAUGUACAACUAAAUUAGUAUAUGAAAAGUGCUCACUACGUUUUUACGGGAAAUAAUCCUGACAAAAAUGUUCAACAGAGGAUUGAGCAUCA
B20: chr8:41367971:41367972:+_ENSG00000147533_ENST00000520817|hu_hu|motif|central (ssRNA)
RNA: GGGAGUUCUACAGUCCGACGAUCAAUAUACAGUAUUAUUCCUAUCAAAUUUUUUUCUCAUAAGUUAUAUUUAUAACAAAACGGUAAUUAAAAUAUUUUUUAUACCUGCUUAUUCCAUAUCCAGGGACACAGCGGGAACAUUUACAACAGAGGAUUGAGCAUCA
B21: 95067662_95069423_764_3pUTR_ENSMUSG00000015711_ENSMUST00000015855|mouse|control|control (ssRNA)
RNA: GGGAGUUCUACAGUCCGACGAUCACCUCUGCUACGGCCUCCUCCAGAGCUGCAUCGCUUUUGGGUAAAAUAUGGUGGUCAACAAGGAUGAGGGUGAGCUGGCCAGCCUGGUGCAGGGCUAGGAGGUCAAUCUCGUCCCGGAAGCAACAGAGGAUUGAGCAUCA
B22: 94014883_94016523_1437_CDS_ENSG00000137942_ENST00000370253|human|control|control (ssRNA)
RNA: GGGAGUUCUACAGUCCGACGAUCUAGAGUACCUUCAUUAUGUCCAUCAAAAGGGUAGAUAGCUUUGCAGUGUCCAAUAGCAGGCAAGGGAUCAUCAUCCUCAAAUUCAUCAUCAAACUCAUUGUGGUGACCAUGCUGCUGGGGCAACAGAGGAUUGAGCAUCA

Each binder was assayed against T1, UNK ZnF1-3 (human, UniProt Q9C0B0 31-174) (assay: nsRBNS (natural sequence RNA bind-n-seq); RBNS binding buffer (assumed for nsRBNS): 25 mM Tris pH 7.5, 150 mM KCl, 3 mM MgCl2, 0.01% Triton X-100, 500 ug/ml BSA, 20 U/ml SUPERase-In, 4 C; UNK is unkempt and MSI1 is Musashi-1; names of the RNAs are library labels; protein concentration not given here; high values mean tight binding).
T1 sequence: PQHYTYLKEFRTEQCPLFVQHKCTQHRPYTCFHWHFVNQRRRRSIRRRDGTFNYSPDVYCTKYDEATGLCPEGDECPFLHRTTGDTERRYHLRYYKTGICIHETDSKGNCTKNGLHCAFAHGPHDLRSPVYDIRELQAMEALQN

Row | Binder | binding signal [enrichment R]
1 | B1 | 0.777
2 | B2 | 0.787
3 | B3 | 2.04
4 | B4 | 1.14
5 | B5 | 0.604
6 | B6 | 1.42
7 | B7 | 0.624
8 | B8 | 0.713
9 | B9 | 0.933
10 | B10 | 0.667
11 | B11 | 1.2
12 | B12 | 0.587
13 | B13 | 0.637
14 | B14 | 1.53
15 | B15 | 1.05
16 | B16 | 1.21
17 | B17 | 0.947
18 | B18 | 1.35
19 | B19 | 0.847
20 | B20 | 1.27
21 | B21 | 1.5
22 | B22 | 1.08
